# Experimental data from the supplement of paper PMC5499739.
# In all, about 16,000 sequences were measured (“Z-score”: median about -0.37, highest 2% from about 3.2 on). The list shows a part of the results.
# Test system: RBM10 RRM1-ZnF (GST-tagged construct)
# Experiment: RNAcompete 7-mer binding Z-score; higher = stronger binding preference
# Experimental: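 RNAcompete: 20 pmol GST-tagged RBM10 RNA-binding constructs were incubated with a designed RNA pool of about 241,000 sequences up to 41 nt (1.5 nmol) on glutathione beads for 30 min at 4 °C and washed. Bound RNAs were identified by microarray hybridisation. Each RNA 7-mer is scored by a one-sided Z-score of its enrichment, computed over probes that contain the 7-mer within longer pool sequences.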
row,Sequence,RNAcompete 7-mer binding Z-score
1,CACCGCU,-0.636
2,GUCUUAG,-0.535
3,UAGGAUG,2.39
4,UAAAACU,-0.574
5,UCUUAUU,-0.896
6,CGUCAUU,-0.675
7,AAGUUCA,-0.389
8,CGGGGAC,2.19
9,CCGGGAU,0.55
10,CAAGGCG,0.829
11,CCAUAGC,-0.805
12,CAUGAGC,-0.383
13,CGAGGUU,0.846
14,CGUAAGG,0.833
15,GCGUCAU,-0.6
16,ACGUUGA,0.0105
17,UGUAAAU,-0.272
18,GUCGAAC,-0.305
19,GUUAAGU,0.0495
20,CGGCCCU,-0.565
21,CCUAUAU,-0.733
22,AAGUCAA,-0.123
23,UCCCCUA,-0.574
24,AGGCUGC,0.00404
25,UCUCCAA,-0.72

row,Sequence,RNAcompete 7-mer binding Z-score
1,CGGACCU,-0.493
2,CUAAAUA,-0.594
3,GUCCGUG,-0.253
4,AGUAGUG,1.09
5,CCUGGUG,-0.0512
6,GAGCCAG,-0.106
7,GCCAGGG,1.93
8,CUCGGCU,-0.467
9,UGGAAAU,1.1
10,CAUUGCG,-0.464
11,CCGAUAU,-0.642
12,UGUUGCG,-0.0155
13,AUUCUUC,-0.811
14,AAAGACU,-0.298
15,GACUGAA,-0.23
16,GAUAGGC,0.852
17,UUCUGGG,0.283
18,CUAGCUA,-0.727
19,CCUCCAA,-0.818
20,UGGCGUG,1.21
21,UGUAACC,-0.47
22,CGCCAUU,-0.805
23,CCUACCA,-0.711
24,CUUACGA,-0.811
25,CGAAAUA,-0.376

row,Sequence,RNAcompete 7-mer binding Z-score
1,ACUGCCU,-0.854
2,GCUACAG,-0.223
3,GGUAGUU,0.771
4,CGAACUC,-0.789
5,UACGUAG,0.173
6,CCACACG,-0.311
7,CACCCGC,-0.392
8,ACCCCUA,-0.555
9,ACAUCUG,-0.626
10,UCUAACG,-0.623
11,UUACGGG,1.26
12,UUCUCUG,-0.756
13,CCAACGG,0.173
14,ACAUCUA,-0.642
15,ACAAAAU,-0.561
16,UCACUAG,-0.279
17,AACUGCC,-0.704
18,UCUGGUG,0.342
19,UGCCGGC,-0.454
20,CAAGCGC,-0.587
21,ACUAGCA,-0.415
22,GCUAUAG,0.163
23,CGCGGGC,0.719
24,UAGCGUC,-0.535
25,AAUAUUG,-0.275

row,Sequence,RNAcompete 7-mer binding Z-score
1,CUUGCCU,-0.824
2,ACCUCUU,-0.899
3,UUCCAAG,-0.642
4,AGAUUAG,0.755
5,CCGAACU,-0.818
6,UUGAACU,-0.539
7,AAGACAG,0.339
8,AACUGGU,0.118
9,GGCGGCG,1.13
10,CCCCUGA,-0.357
11,GGAUUCC,-0.275
12,CGUUUGG,0.296
13,CUUGUAC,-0.779
14,GAUAAUG,0.703
15,AACCGGG,0.914
16,CUUGUGC,-0.717
17,UUAGGUG,1.46
18,AGUCCUC,-0.604
19,CACGUAU,-0.448
20,UGGUCAC,0.173
21,UGAGGCA,0.904
22,UUUGGAG,1.06
23,CAGUGCA,-0.23
24,ACGAGCA,0.000789
25,GUCCAUC,-0.561

row,Sequence,RNAcompete 7-mer binding Z-score
1,GGCGUCG,0.68
2,UUCGAUC,-0.769
3,CACCCCA,-0.256
4,AAUGAUA,0.00404
5,GCGACAG,0.54
6,UACAGGA,1.31
7,AGAGUAU,0.115
8,UUGCAAC,-0.626
9,GGUGCAU,1.34
10,ACGCCAU,-0.665
11,CGCCACA,-0.565
12,CCCACUU,-0.685
13,UAUGGAU,1.21
14,UGUCAAG,-0.0544
15,AUACGAU,-0.324
16,ACGAUAC,-0.487
17,GGGCUGC,1.5
18,UGGGGUU,3.29
19,CCCAGGG,0.426
20,CAACAGU,-0.386
21,CGGCCGU,-0.292
22,AGUUGUC,-0.642
23,GCUUCGU,-0.678
24,CACUACU,-0.457
25,CGAUGGG,2.22

row,Sequence,RNAcompete 7-mer binding Z-score
1,UGCGGCA,0.306
2,CAGGUAC,0.68
3,GGUUGCG,2.19
4,UACUCAG,-0.428
5,GUCCAUA,-0.623
6,AGCUGAA,0.186
7,CCAUUUA,-0.99
8,ACUCCUU,-0.896
9,ACAGUGG,1.24
10,CGAAUCG,-0.451
11,CGCGCCG,-0.402
12,UCCUUUC,-0.707
13,AAAUCCC,-0.86
14,AAGAACG,0.144
15,CCAAUGA,-0.711
16,CAAUCCG,-0.763
17,CAAGCUG,-0.519
18,AUCUGGA,-0.0252
19,AAGAAGG,3.54
20,AGGGACU,1.23
21,UGGUAGA,2.34
22,GUGUGUU,0.296
23,UAAAAGU,0.0268
24,ACUUCAC,-0.776
25,GGUUCGA,0.482

row,Sequence,RNAcompete 7-mer binding Z-score
1,GUUUACA,-0.363
2,CCUUGAC,-0.909
3,GAGCGAU,0.534
4,UUAGUAG,0.264
5,CAAUAUG,-0.379
6,CGCGGUU,0.348
7,AUCAUAG,-0.321
8,AAGUUUG,-0.194
9,CGUAAGC,-0.383
10,CACCCAC,-0.36
11,GGUCUAG,0.235
12,GGCUCUU,-0.526
13,UUAGUUC,-0.675
14,UUAGAUU,-0.503
15,GCUCUUU,-0.831
16,CUUGGCC,-0.571
17,CCACUAC,-0.623
18,UUCUCUU,-0.623
19,CUGCGAG,0.128
20,AUGCACU,-0.542
21,CUAGACA,-0.613
22,AAAGUCC,-0.561
23,AGUGGCG,1.69
24,AGUUUUA,-0.639
25,AUCUACU,-0.698

row,Sequence,RNAcompete 7-mer binding Z-score
1,CGUAAAG,-0.116
2,UAGUGUC,-0.396
3,CGACUCA,-0.88
4,CCAGCUA,-0.717
5,UUCUACG,-0.841
6,ACUGACA,-0.318
7,AGCUCCC,-0.503
8,CUUCCUC,-0.694
9,GCUAUGC,-0.269
10,AGGCCGC,-0.805
11,AAUUUCG,-0.607
12,UUUUACG,-0.685
13,GUGACAG,1.11
14,CCGCCAU,-0.617
15,CAACCUA,-0.649
16,AGGGAUG,4.59
17,ACCUGUA,-0.75
18,GGGCGCU,0.667
19,UUGGUCA,0.0788
20,UAAACCG,-0.62
21,UUAUAGG,0.751
22,UACAGAA,-0.353
23,CACCUGU,-0.539
24,UAAGUAC,-0.496
25,CUUGGUA,0.118

row,Sequence,RNAcompete 7-mer binding Z-score
1,AUACAAC,-0.383
2,GACAGUG,0.884
3,GGAUGAC,1.51
4,UUACCAC,-0.565
5,CAGGGGG,2.94
6,CUGAUCU,-0.831
7,UCAAACU,-0.785
8,UGACUUU,-0.753
9,GUAACCU,-0.451
10,CAACGUG,-0.0739
11,GUGUGGC,1.62
12,ACCGGUA,0.128
13,GUGUUAG,0.452
14,UUCCAAC,-0.766
15,AACCUAG,-0.415
16,AAGAAAU,-0.337
17,UCUGCCG,-0.789
18,AGUAGGG,4.16
19,CCGUACU,-0.795
20,GGCAGAC,0.436
21,GUAAUGC,-0.162
22,GUACCGG,0.553
23,ACGUCCC,-0.72
24,AGCUGAC,-0.194
25,GAUACAU,-0.0707

row,Sequence,RNAcompete 7-mer binding Z-score
1,CAGCGAC,-0.363
2,AGUUGCC,-0.435
3,ACCAGGU,0.14
4,ACGCUGG,0.326
5,UCUAGAC,-0.607
6,GGCUAGG,1.72
7,ACGGUCC,-0.555
8,AAUACGC,-0.409
9,ACGGACU,-0.0479
10,UGUUGUG,0.391
11,GGGCGAG,3.37
12,UCUGCUC,-0.844
13,UGGGUAU,2.37
14,AUGGCCA,-0.249
15,GUGCAAC,-0.106
16,CAUUCUG,-0.802
17,CAGCAUA,-0.474
18,GGUUUAG,1.29
19,CAUAGCA,-0.415
20,CUUGAGG,0.283
21,CGUACUA,-0.448
22,GAUUUUG,-0.194
23,CGCCCCU,-0.409
24,UUUUUUU,-0.834
25,UGAGUCG,0.000789

row,Sequence,RNAcompete 7-mer binding Z-score
1,CGAACCU,-0.688
2,CCCUGUA,-0.649
3,GAUUCGG,0.612
4,CAAUCCA,-0.743
5,ACUCCAC,-0.662
6,ACGACCC,-0.594
7,AUCUUCU,-0.863
8,ACAAUAU,-0.483
9,GAAUAGC,0.056
10,CUUUGUG,-0.662
11,CGGUCAG,0.254
12,CACUGUG,-0.282
13,GGAGAUG,2.65
14,UCCCACG,-0.561
15,AUCCUCC,-0.694
16,CCAUUUC,-1.06
17,CCAACUG,-0.629
18,CACGAGA,-0.23
19,ACUUGUG,-0.275
20,AUCAAUA,-0.49
21,GUUACAC,-0.223
22,UUAAUAA,-0.545
23,UAAAUAA,-0.275
24,ACAGUUU,-0.623
25,GCUGCCU,-0.578

row,Sequence,RNAcompete 7-mer binding Z-score
1,AGUGUGA,0.842
2,AAGGCAA,0.894
3,UCAACCG,-0.828
4,CCUGAUG,-0.509
5,CGCAUGU,-0.519
6,UAUCAGC,-0.694
7,CCGAAGC,-0.61
8,CCAGUAU,-0.555
9,UGUGAAG,0.833
10,CAUUCGC,-0.815
11,GAGACCU,-0.633
12,ACCCUCC,-0.74
13,UCCAGAU,-0.6
14,AUUAAUG,-0.0382
15,GCGUAAU,0.115
16,GAUGGGU,3.53
17,UAGGUAC,0.524
18,AUCGUAU,-0.435
19,AAUCUUA,-0.824
20,UGAUGGG,3.14
21,UAGACUU,-0.613
22,CAUGUGC,-0.266
23,GUAAUAU,-0.0122
24,AAGGAGC,2.53
25,AUCUGUU,-0.785

row,Sequence,RNAcompete 7-mer binding Z-score
1,GGGCAUG,1.94
2,GGCCUCC,-0.487
3,UCAUUCC,-0.902
4,GCUCCCG,-0.168
5,UUACAUA,-0.496
6,CCCGGCU,-0.503
7,UGUGCAU,-0.23
8,GCAUAGC,-0.324
9,UGCUUAU,-0.649
10,UGGUCGG,1.84
11,UCCAUUC,-0.798
12,UCAUAGG,-0.022
13,GCGUAUA,-0.103
14,UUCUCGA,-0.769
15,GCGCCGA,-0.396
16,UCACGCC,-0.519
17,GAUCCCA,-0.587
18,ACUUUCU,-0.935
19,CGACAGG,1
20,UUCAAGU,-0.565
21,CGGGGAU,2.5
22,GGUGUUU,1.34
23,CUGCGAA,-0.48
24,AAGAAUC,-0.366
25,UCAAUAA,-0.617

row,Sequence,RNAcompete 7-mer binding Z-score
1,GAAUAAG,0.55
2,UCAAUGU,-0.48
3,GGCUAAC,0.0365
4,CGUAACG,-0.23
5,AAAUCUG,-0.558
6,AUGCAUC,-0.555
7,GGGGGCU,2.22
8,UGAAAGG,3.05
9,GUUUAGU,-0.0674
10,AGCCAGU,-0.698
11,GUUUAAC,-0.386
12,GGAUAGC,2.01
13,GCAGCUC,-0.584
14,CUGAAUC,-0.5
15,UGCAGUC,-0.379
16,UAAGUGG,1.57
17,CGAACAG,-0.158
18,CUGAUAG,-0.246
19,AUAAUAC,-0.47
20,UCCCUUG,-0.73
21,GAUUAUU,-0.301
22,UUAGAAU,-0.152
23,ACAAAAG,-0.149
24,AAGGGUA,4.59
25,CGGGGAA,2.71

row,Sequence,RNAcompete 7-mer binding Z-score
1,CUGGAUU,-0.0544
2,UCUGUAU,-0.668
3,ACUUGGG,1.34
4,CCCGGUC,-0.37
5,AAACAGA,0.017
6,GGUCUCA,-0.21
7,GUUGUCA,-0.389
8,UAUGAUG,0.332
9,UUCGGCG,-0.035
10,CGCUAUU,-0.727
11,CAAGUCU,-0.633
12,GUCCAGG,0.163
13,UUCCAUU,-0.74
14,GUAAUGG,2.73
15,GAUUCCC,-0.61
16,ACGUAGG,1.46
17,GAUAGCC,-0.279
